Among all 52,000 compounds or so, about 4,300 (8.3%) were called active. Cut-off read from the data, not from the text of the source: active = survival mostly below about 52% (no sharp cut-off); inactive = mostly above about 56%. The list shows a part of the results.

The values below come from PubChem BioAssay AID463173 (ICCB-Longwood Screening Facility, Harvard Medical School, 2010).

The test system of the assay is DeltatarO mutant. Description: S. aureus survival, RN4220 and DeltatarO strains – OD600, teichoic acid synthesis inhibitors, primary screen (AID 463173). The following applies: S. aureus RN4220 wild type/DeltatarO growth, OD600, 18 h, active compounds read low, screened at 18.75 µg/mL (by protocol).
With `Cc1sc(-n2cccc2)c(C(C)NC(=O)Nc2cccc(C(F)(F)F)c2)c1C` (centres undefined), the survival is active: 23%.

Consider `COc1cc(OC)cc(C(=O)NCCc2csc3nc(-c4ccccc4F)nn23)c1`, for which the survival is inactive: 84%.

Regarding `Cc1ccc(-n2c(=O)c3c(c4cc(C)ccc4n3C)n(CC(=O)Nc3ccc(F)cc3)c2=O)cc1`, the survival was inactive: 97%.

Take `CC(=O)c1ccc(N2CCN(C(=O)c3cn(C)c(=O)c4c3c3ccccc3n4C)CC2)cc1`: the survival was inactive: 52%.

`CCS(=O)(=O)N1CCc2cc(C(=O)Nc3ccc(Br)cc3F)ccc21`: the survival was inactive: 98%.

Consider `CCc1cccc(C)c1NC(=O)c1ccc2c(c1)CCN2S(=O)(=O)c1ccc(Cl)cc1`, for which the survival was inactive: 67%.

In the case of `COc1ccc(CNC(=O)COCc2cc(-c3ccc4c(c3)OCO4)on2)cc1`, the survival was inactive: 94%.

As for `COCCCNc1nc2c(c(=O)n(Cc3ccc(F)cc3)c(=O)n2C)n1C`, the survival was inactive: 132%.

For `Cc1cc(C)cc(NC(=O)CCc2c(C)nc3nc(CNC(=O)c4cccc(F)c4)nn3c2C)c1`, the survival was inactive: 64%.

`CCCCC(=O)Nc1nnc(S(=O)(=O)N(C)Cc2ccc(Cl)cc2)s1`: the survival is inactive: 102%.

`COc1ccc(N(Cc2cccs2)C(=O)c2ccco2)cc1`: the survival was inactive: 73%.

For `O=c1cc(COc2ccc(Cl)cc2Cl)nc2scc(-c3ccccc3)n12`, the survival is inactive: 67%.

Turning to `COc1ccccc1OCC(=O)N(Cc1ccco1)Cc1ccccc1F`, the survival is inactive: 64%.

On to `CC(CNC(=O)c1ccc2c(c1)nc1n2CCCCC1)c1ccccc1` (centres undefined), for which the survival was inactive: 62%.

Regarding `CCOc1ccc(CC(=O)NC2CC(=O)N(c3cccc(F)c3)C2)cc1` (centres undefined), the survival is inactive: 78%.

Take `CCCCC(CC)C(=O)Nc1ccccc1C#N` (centres undefined): the survival is inactive: 93%.

`Cc1ccc(C2C(=O)N(C3CCC(C)CC3)CC(=O)N2C2CCCC2)cc1` (centres undefined): the survival is inactive: 83%.

For `COc1ccccc1-c1nn2c(=O)cc(CN3CCN(C(=O)Nc4ccc(C)cc4Cl)CC3)nc2s1`, the survival is inactive: 78%.

On to `CCOc1ccc(-n2c(=O)c3c(C)c(C)sc3n(CC(=O)C(C)(C)C)c2=O)cc1`, for which the survival is inactive: 121%.

As for `O=C1CCCN1CCCNc1ccc(Cl)nn1`, the survival is inactive: 103%.

Take `Cc1cc(NS(=O)(=O)c2ccc(NC(=O)COc3c(C)ccc(C)c3C)cc2)nc(C)n1`: the survival is inactive: 51%.

For the compound `CCOc1ccc(NC(=O)Cn2c(=O)n(CCCC(=O)NCCc3ccc(Cl)cc3)c(=O)c3ccccc32)cc1`, the survival was inactive: 107%.

In the case of `Cc1ccccc1-c1noc(-c2ccc(NCC3CCCO3)c([N+](=O)[O-])c2)n1` (centres undefined), the survival was inactive: 82%.

As to `COc1ccccc1CNC(=O)CC(c1ccc(F)cc1)N1Cc2ccccc2C1=O` (centres undefined), the survival was inactive: 71%.

As for `Cc1cccc(N2CCN(S(=O)(=O)c3ccc(-c4cnc(C5CC5)o4)cc3)CC2)c1C`, the survival was inactive: 77%.

On to `Cc1ccc(Cn2c(SCC(=O)NCc3ccccc3)nc3ccsc3c2=O)cc1`, for which the survival was inactive: 92%.

`CCOC(=O)c1cccc(NC(=O)C(C)n2nc(C)c3c(C)n(-c4ccccc4)nc3c2=O)c1` (centres undefined): the survival was inactive: 101%.

With `COc1ccc(-c2[nH]c(-c3ccc(O)cc3)nc2-c2ccccc2)cc1`, the survival is active: 3%.

As for `Cc1ccc([N+](=O)[O-])cc1NC(=O)CN(c1ccccc1)S(=O)(=O)N(C)C`, the survival was inactive: 58%.

As to `Cc1oc(-c2ccccc2F)nc1CS(=O)(=O)CC(=O)N1CCN(c2ccccc2)CC1`, the survival was inactive: 77%.

With `COc1ccc(OC)c(S(=O)(=O)NCC(c2ccc(N(C)C)cc2)N2CCOCC2)c1` (centres undefined), the survival was inactive: 75%.

On to `COC(=O)c1cc(NC(=O)c2cc3c(-c4ccccc4F)nn(C)c3s2)cc(C(=O)OC)c1`, for which the survival is inactive: 93%.

Take `COc1ccc(N2CCN(S(=O)(=O)c3ccc(CC(C)C)cc3)CC2)cc1`: the survival was active: 56%.

As to `O=C(NCC(c1ccco1)S(=O)(=O)c1cccs1)c1ccccc1` (centres undefined), the survival was inactive: 63%.

For `Cc1c(Cl)cccc1Nc1nn2c(=O)c3ccccc3nc2s1`, the survival was inactive: 73%.

As for `Cc1ccc(-n2c(C)cc(/C=N/NC(=O)CC3(C)OCCO3)c2C)cc1`, the survival was inactive: 90%.

With `CCOC(=O)c1cc2c(=O)n3ccccc3nc2n(Cc2ccco2)c1=NC(=O)c1ccccc1Br`, the survival was inactive: 71%.

`O=C(NCc1ccc2c(c1)CCN2C(=O)c1ccccc1)c1cc2ccccc2[nH]1`: the survival is active: 6%.

For `CN1CCc2nc3sc(C(=O)c4ccc5c(c4)OCO5)c(N)c3cc2C1`, the survival was inactive: 109%.

As for `CCc1ccc(NC(=O)c2sc3ncnc(N(C)C4CCCCC4)c3c2C)cc1`, the survival is inactive: 101%.

Regarding `CC(=O)C1=C(c2ccc(C)cc2)N(C(C)=O)n2c(nnc2C2CCCCC2)S1`, the survival is inactive: 94%.

Regarding `COc1ccc(CNC(=O)Nc2ccc3c(c2)N(C)C(=O)c2ccccc2S3)cc1`, the survival was inactive: 112%.

`CCOc1ccc(C2C(C(N)=O)=C(C)Nc3nc(SCc4ccccc4)nn32)cc1` (centres undefined): the survival was inactive: 64%.

In the case of `CC1(C)Cc2c(c(N3CCOCC3)nc3oc(C(=O)c4ccccc4)c(N)c23)CO1`, the survival was inactive: 90%.

As to `O=C(CN1C(=O)COc2ccc(S(=O)(=O)N3CCCC3)cc21)N1CCN(c2ccccc2)CC1`, the survival is inactive: 49%.

As to `CCc1cc2c(NCCN3CCCCC3)ncnc2s1`, the survival is inactive: 85%.

Consider `Cc1cccc2cc(CN(CCO)S(=O)(=O)c3ccc(Cl)cc3)c(=O)[nH]c12`, for which the survival is inactive: 82%.

As for `CC(C)c1ccc(S(=O)(=O)c2nnn3c2nc(N2CCN(C)CC2)c2sccc23)cc1`, the survival was inactive: 34%.

Regarding `COc1cc(C2c3c(-c4ccccc4O)n[nH]c3C(=O)N2CCO)ccc1OCc1ccccc1` (centres undefined), the survival was inactive: 77%.

For `COc1cccc(CNC(=O)c2ccc3nc(-c4ccc(F)cc4)c(-c4ccc(F)cc4)nc3c2)c1`, the survival was inactive: 99%.

As for `CC(=O)c1cccc(NC(=O)c2nc3ccccc3n(C)c2=O)c1`, the survival is inactive: 117%.

Turning to `CCOC(=O)c1ccccc1NC(=O)c1c2c(nc3ccccc13)C(=O)N(C1CCCCC1)C2`, the survival was inactive: 75%.

In the case of `O=C(NCc1ccco1)C12CC3CC(CC(C3)C1)C2`, the survival is inactive: 88%.

In the case of `COc1ccc(-c2nnc(SCc3cc(=O)c4cc(C)cc(C)c4[nH]3)n2C)cc1`, the survival was inactive: 104%.

For `O=C(c1cccs1)c1cn(CCOc2ccccc2F)c2ccccc12`, the survival is inactive: 104%.

Consider `CC1=C(C(=O)Nc2ccccc2C)C(c2ccncc2)n2nc(SCc3ccccc3Cl)nc2N1` (centres undefined), for which the survival was inactive: 62%.

With `COc1ccc(S(=O)(=O)Nc2cccc(-c3ccc(N4CCC(C)CC4)nn3)c2)cc1OC`, the survival was inactive: 72%.

With `Cc1cccc(NS(=O)(=O)c2ccccc2)n1`, the survival was inactive: 103%.

Turning to `Cc1cccc(-c2noc(-c3ccccc3NC(=O)C3CC(=O)N(c4ccccc4C)C3)n2)c1` (centres undefined), the survival is inactive: 62%.

For `CCn1c(=O)c2cc(C(=O)Nc3cc(OC)c(OC)c(OC)c3)sc2c2ccccc21`, the survival was active: 41%.

Consider `Cn1ccc2cc(S(=O)(=O)N3CCCC(C(=O)NCc4ccccc4)C3)ccc21` (centres undefined), for which the survival was inactive: 103%.

As for `c1cc(CNC2CCCCC2)co1`, the survival was inactive: 72%.

For the compound `COc1ccc(C(=O)Nc2nc3nc(C)c(Cc4ccccc4)c(=O)n3[nH]2)cc1OC`, the survival is inactive: 94%.

For `Cc1ccc(CNC(=O)COCc2cc(-c3cccs3)on2)cc1`, the survival is inactive: 69%.

For `CCOc1ccc(CNC(=O)C2CCN(S(=O)(=O)N3CCC(C)CC3)CC2)cc1OC`, the survival is inactive: 75%.

Regarding `CC1=C(C(=O)Nc2cccnc2)C(c2cccc(Br)c2)n2nc(SCc3ccccc3)nc2N1` (centres undefined), the survival is inactive: 69%.

With `Cc1cccc(CNS(=O)(=O)c2ccc(-c3cnc(C4CC4)o3)cc2)c1`, the survival was active: 52%.

Turning to `COc1cc(NC(=O)C2CCN(c3cnc4ccccc4n3)CC2)cc(OC)c1OC`, the survival was active: -5%.

As to `CCCc1cc(=O)n2[nH]c(NC(=O)c3ccc(C(C)(C)C)cc3)nc2n1`, the survival was inactive: 110%.

In the case of `CC(=O)c1cccc(NC(=O)CN2C=NS(=O)(=O)c3ccc(C)cc32)c1`, the survival was inactive: 89%.

For the compound `CCCn1c(SCc2nc3ccccc3[nH]2)nc2ccccc21`, the survival is inactive: 95%.

On to `CCc1nnc(SCc2c(F)cccc2Cl)c2cc3sccc3n12`, for which the survival is inactive: 94%.

For the compound `CC(C)CCNC(=O)c1ccc2c(c1)NC(=O)C(CS(=O)(=O)Cc1ccc(F)cc1)N2` (centres undefined), the survival is inactive: 80%.

Take `Cc1ccc(NC(=O)Cn2cc(C(=O)C3CC3)c3ccccc32)c(C)c1`: the survival was inactive: 90%.

As for `CC1=C(C(=O)N2CCN(c3cc(C)ccc3C)CC2)C2(CCC(C)CC2)OC1=O` (centres undefined), the survival is inactive: 73%.

`COc1ccc(C(C(=O)NCc2ccccc2)N(C(=O)Cn2nnc3ccccc32)c2cccc(OC)c2)cc1` (centres undefined): the survival was inactive: 50%.

For `O=C(COc1ccc(F)cc1)OCc1cc(=O)n2nc(C3CCCCC3)sc2n1`, the survival was inactive: 86%.

Consider `CC12CC(c3ccccc3O1)C(C(=O)NCc1ccccc1)C(=O)N2` (centres undefined), for which the survival is inactive: 92%.

For `Cc1cc(-c2ccc(C)c(S(=O)(=O)NC(c3cccs3)C(C)C)c2)on1` (centres undefined), the survival is inactive: 71%.

With `CC1(C)CC(=O)C2=C(C1)OC(N)=C(C#N)C21CCCCC1`, the survival is inactive: 98%.

As to `COc1ccc(NC(=O)CCSc2nc(-c3ccc(OC)cc3)cc(C(F)(F)F)n2)cc1`, the survival is inactive: 70%.

On to `COc1cccc(NC(=O)CC2NCCNC2=O)c1` (centres undefined), for which the survival is inactive: 84%.

`COc1ccc(C(=O)NCC(c2ccc(N(C)C)cc2)N2CCc3ccccc32)c(OC)c1` (centres undefined): the survival is inactive: 92%.

For `COc1ccc(S(=O)(=O)NCC(c2ccco2)N2CCOCC2)cc1OC` (centres undefined), the survival was inactive: 67%.

As for `CCc1cc(C(=O)Nc2cnn(Cc3ccccc3C)c2)no1`, the survival is inactive: 56%.

Take `Cc1ccc(NC(=O)CCc2c(C)nc3cc(-c4ccccc4)nn3c2C)cc1F`: the survival was inactive: 56%.

With `COc1ccc(-c2nc3c(C#N)c[nH]n3c2NC2CCCC2)c(OC)c1`, the survival is inactive: 65%.

For the compound `Cc1ccc2c(=O)cc(C(=O)Nc3sc4c(c3C(=O)NCc3cccnc3)CCCC4)oc2c1C`, the survival was inactive: 110%.

On to `Fc1ccc(-c2noc3ncnc(NCCCN4CCN(c5ccccc5)CC4)c23)cc1`, for which the survival was inactive: 84%.
